Laboratory results from PubChem BioAssay AID485297 (National Center for Advancing Translational Sciences (NCATS), 2010).
The campaign covered roughly 320,000 compounds. About 9,100 (2.8%) were called active. This list was built around the results that the source calls inconclusive (neither active nor inactive); the mix of calls is not that of the screen. The call rests on the fitted dose curve; in most records, active means well fitted activation curve with a large enough effect; inconclusive means small, poorly fitted or top-dose-only effect; inactive means no such curve, though single readings can be large or run the other way. No potency is given beside an inconclusive call; the fits are too rough.

test: qHTS Assay for Rab9 Promoter Activators; conditions: Huh7 Rab9 promoter-luciferase reporter, luminescence, 24 h; series mostly up to 9.22 µM; activation, negative = inhibition: at the top concentration; further: nearly all actives have a fitted effect of over 60% in size; on activation, negative = inhibition: % of control where 0% means no effect
Summary of the method: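 Quantitative HTS format; Huh7 Rab9-luciferase reporter cells (1500/well) receive compound 2 h post-plating, incubate 24 h at 37 °C, then get luciferase reagent for 10 min before luminescence reading.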
Potency means the concentration at half of the fitted maximal effect; tags describe the fitted curve by direction and shape.

| Structure (SMILES) | Potency | activation, negative = inhibition |
| --- | --- | --- |
| CCOc1ccc(/C=N/NC(=O)c2ccccc2NC(=O)c2ccc(OC)cc2)cc1 | inconclusive [activator, full curve] |  |
| O=C(CSc1nnc(NC(=O)c2ccc3c(c2)OCO3)s1)NCc1ccco1 | active: 708 nM |  |
| CC(C)N(C(=O)CSc1ncnc2sc(-c3ccccc3)cc12)C(C)C | inconclusive [activator, single point] |  |
| Nc1nnc(SCc2coc(-c3ccc(Cl)cc3)n2)s1 | inconclusive [activator, partial curve] |  |
| COC(=O)c1sccc1NC(=O)CC1C(=O)NCCN1C(=O)Nc1cc(Cl)ccc1OC (stereo not drawn) |  | inactive: -1.04% |
| C/C(=N\NC(=O)c1ccc(N(C)C)cc1)c1cccnc1 | inconclusive [activator, partial curve] |  |
| C/C(=C\c1ccccc1)C(=O)Nc1ccc(Cl)cn1 | active: 794 nM |  |
| Cc1ccc2nc3c(cc2c1)c(NC(=O)C(C)(C)C)nn3CC(C)C |  | inactive: -3.75% |
| Cn1cc(Cl)c(C(=O)N/N=C/c2ccc3c4c(cccc24)CC3)n1 | active: 1410 nM |  |
| Cc1nc(-c2ccc(Cl)cc2)sc1C(=O)CBr |  | inactive: 5.69% |
| CCCCNc1ncnc2c1cnn2-c1ccc(Cl)cc1 | inconclusive [activator, partial curve] |  |
| C/C(=N\Nc1nncc2ccccc12)c1ccc(OCC(=O)N(C)C)cc1 | inconclusive [activator, partial curve] |  |
| S=C(Nc1cccc(Cl)c1)Nc1ccc2c(c1)OCCO2 | inconclusive [activator, partial curve] |  |
| Cn1cnnc1SCC(=O)NC1CCCC1 |  | inactive: -1.95% |
| CC1CCN(C(=O)CNC(=O)c2ccc(Cl)cc2Cl)CC1 | inconclusive [activator, single point] |  |
| O=C(CCSc1ccccc1)N1CCOCC1 | active: 2820 nM |  |
| CCC(C)(C)c1ccc(OCCCC[n+]2ccc(C)cc2)c(C(C)(C)CC)c1 |  | inactive: -17.3% |
| CC(=O)c1cnc2cc(-c3ccccc3)nn2c1C | active: 1410 nM |  |
| CSCc1c(C(=O)Nc2ccc3c(c2)OCO3)oc2ccccc12 |  | inactive: 18.9% |
| COc1ccc(OCCSc2nnc3sc4ccccc4n23)cc1 | inconclusive [activator, single point] |  |
| N#CCSc1nnc(-c2sc3ccccc3c2Cl)o1 |  | inactive: 12.2% |
| CC1=C(C(=O)OCC2CCCO2)C(c2ccsc2)C2=C(CCCC2=O)N1 (stereo not drawn) | inconclusive [activator, single point] |  |
| Cc1cc(NC(=O)c2ccccc2NS(=O)(=O)c2c(C)c(C)cc(C)c2C)no1 |  | inactive: -8.84% |
